# Results as given in the supplement of paper PMC4166925.
# ± gives the standard deviation of the averaged measurements. In all, about 33,000 sequences were measured (“E-score (dimensionless, -0.5 to 0.5)”: median about -0.046, highest 2% from about 0.36 on). Some of the results follow.
# System: T1, SpTbr T-box DNA-binding domain (GST fusion)
# T1 sequence: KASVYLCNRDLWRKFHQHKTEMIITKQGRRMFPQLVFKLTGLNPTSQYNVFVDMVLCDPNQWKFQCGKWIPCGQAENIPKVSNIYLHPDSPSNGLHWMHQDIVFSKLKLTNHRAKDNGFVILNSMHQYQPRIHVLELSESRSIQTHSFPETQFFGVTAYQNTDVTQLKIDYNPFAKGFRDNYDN
# Assay: PBM E-score of 8-mer (E-score (dimensionless, -0.5 to 0.5)); Tbr is Tbrain of the sea star Patiria miniata (Pm) or the sea urchin Strongylocentrotus purpuratus (Sp); higher = stronger binding preference; most listed sequences are background and not binding sites
# Details: the construct has about 5 more residues each side
# Summary of the method: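 GST-fused Tbr T-box DNA-binding domains (the whole T-box plus about five flanking residues) were expressed in BL21 E. coli at 20 °C and purified by glutathione affinity chromatography. Universal Agilent oligonucleotide arrays were made double-stranded by primer extension, incubated with 200 nM protein in PBS (pH 7.5), then scanned and quantified. Every ungapped 8-mer was scored from probe intensities. The Universal PBM Analysis Suite gave each word an enrichment E-score, averaged over duplicate arrays.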
row,Sequence,PBM E-score of 8-mer
1,CTACGGGA,-0.307 ± 0.03
2,AGTCGAAG,-0.182 ± 0.042
3,ACCTCGCT,0.0573 ± 0.075
4,GTTCGAAC,-0.0456 ± 0.057
5,CTTAAGGA,-0.233 ± 0.015
6,ATGCTCTC,-0.106 ± 0.061
7,ACGTGGCG,0.172 ± 0.063
8,TATATAGA,0.0105 ± 0.0057
9,AGGTGCGG,0.429 ± 0.025
10,GGTGCACA,0.149 ± 0.055
11,ATCGAAAG,-0.156 ± 0.057
12,AAACATTT,-0.245 ± 0.056
13,AAGACAGA,-0.113 ± 0.0064
14,AGGCCGCG,-0.0663 ± 0.042
15,CAAACTCG,-0.0126 ± 0.039
16,AGTATGAG,-0.1691 ± 0.0014
17,CGTTAGAC,-0.00874 ± 0.0054
18,ATTCGCAC,0.4705 ± 0.0024
19,GATAGAGA,-0.0162 ± 0.011
20,ACCGGAAT,-0.166 ± 0.0071
21,GAACGGAA,-0.116 ± 0.005
22,CAAATGAG,-0.158 ± 0.037
23,AGCCCGTC,-0.0589 ± 0.022
24,AAAACGAA,-0.137 ± 0.18
25,CGGATGCC,-0.171 ± 0.063

row,Sequence,PBM E-score of 8-mer
1,AATATTGG,0.0593 ± 0.03
2,AATGGTTG,0.00509 ± 0.024
3,GCCACCCC,0.181 ± 0.081
4,ACAGACGT,0.126 ± 0.022
5,CACATATA,0.225 ± 0.013
6,CATTGATA,-0.05604 ± 0.0005
7,TGAAGTCA,-0.147 ± 0.078
8,CCCTGGAC,-0.304 ± 0.012
9,GCCTATTA,-0.0188 ± 0.076
10,CACGACAG,0.0547 ± 0.024
11,CATGAACA,0.0999 ± 0.012
12,AATTCTCC,-0.177 ± 0.044
13,ACCACTAA,0.0893 ± 0.044
14,ACGACAAT,0.13 ± 0.0098
15,AAGGTGGT,0.247 ± 0.033
16,CGAACAAG,-0.176 ± 0.0081
17,ATTAGAGA,-0.263 ± 0.018
18,GCATGATA,-0.204 ± 0.044
19,CCAGTCAG,-0.219 ± 0.057
20,AGTGTGTC,0.234 ± 0.06
21,ACACCCGT,0.344 ± 0.017
22,GTCCGAAA,-0.0192 ± 0.0055
23,CGCAAGGA,-0.051 ± 0.018
24,GGGCTATA,-0.219 ± 0.015
25,CGCGGAGC,0.00248 ± 0.026

row,Sequence,PBM E-score of 8-mer
1,CATAGTGC,0.0466 ± 0.013
2,GGTTTGAA,-0.128 ± 0.026
3,AAGTTAGC,0.118 ± 0.051
4,ATATTCCG,-0.0864 ± 0.045
5,TGTGCACA,0.182 ± 0.021
6,CAACGTAG,-0.206 ± 0.026
7,ATACGACG,-0.035 ± 0.047
8,GCAGACGA,-0.0166 ± 0.058
9,CCGTTAGA,0.0367 ± 0.017
10,GCGGCACC,0.301 ± 0.058
11,CGCTCTTA,-0.254 ± 0.016
12,CTGACCCA,-0.181 ± 0.057
13,CCCGTTGC,-0.0897 ± 0.17
14,GCTGCGAC,0.137 ± 0.059
15,GCAAGTTA,0.0663 ± 0.0025
16,ACGCGCAG,-0.0458 ± 0.074
17,GAAATCGC,0.242 ± 0.0076
18,AACTGTTC,0.0151 ± 0.0031
19,CCCCCTAG,-0.273 ± 0.062
20,AATCCAGC,0.0114 ± 0.0064
21,GATACCCC,-0.273 ± 0.041
22,ACTCATCT,-0.115 ± 0.019
23,CAATTCGG,-0.165 ± 0.061
24,CTGGAGAA,-0.0875 ± 0.047
25,AGCCCCAA,0.0539 ± 0.0008

row,Sequence,PBM E-score of 8-mer
1,CCACACTA,0.279 ± 0.029
2,CCTATGTC,-0.0414 ± 0.13
3,CTGAATAC,-0.137 ± 0.046
4,TCATGCAA,-0.175 ± 0.02
5,CAGAAAAG,-0.0037 ± 0.07
6,AAATCTCC,-0.259 ± 0.018
7,AAGTCGAT,0.126 ± 0.046
8,CAGATAGG,0.0129 ± 0.0034
9,AGCGATAC,0.0863 ± 0.017
10,AACTCACT,0.0115 ± 0.0061
11,CGGCTAGC,0.1221 ± 0.0011
12,TCCCCGCA,0.0619 ± 0.076
13,GGCCAAAC,-0.12 ± 0.07
14,AGTCTTGG,-0.101 ± 0.011
15,CATTGGCA,0.206 ± 0.018
16,CACATCGA,0.151 ± 0.036
17,AAGAACAT,-0.0743 ± 0.032
18,CAAAGTTG,0.114 ± 0.052
19,AAGGGGAT,-0.0523 ± 0.031
20,ATATTCGC,0.16 ± 0.029
21,GTCCGAGA,-0.149 ± 0.026
22,GCGAGCCC,-0.0731 ± 0.098
23,AATAGTCG,-0.0011 ± 0.0085
24,CGGTAACA,0.239 ± 0.051
25,CCTAGATA,-0.285 ± 0.047

row,Sequence,PBM E-score of 8-mer
1,GCCCGTGA,-0.0135 ± 0.069
2,CTGTAGGA,-0.214 ± 0.0083
3,AAGAGGCG,0.187 ± 0.027
4,AGAGCCAC,-0.09 ± 0.049
5,AAGCACTT,0.0747 ± 0.093
6,GCCTAGCC,-0.167 ± 0.016
7,CGTGACCA,0.263 ± 0.048
8,AGCTCATA,-0.0758 ± 0.02
9,ACACAACT,0.202 ± 0.0066
10,AGCATTGA,-0.182 ± 0.0027
11,TTCGTAAA,-0.099 ± 0.049
12,AGGGAGCA,0.0315 ± 0.006
13,AGTGCGCG,0.23 ± 0.071
14,GTGATCAA,0.144 ± 0.022
15,CTAATGAG,-0.232 ± 0.013
16,ATGTTACC,-0.153 ± 0.019
17,CCGCACGA,-0.156 ± 0.12
18,ATAGCACG,0.34 ± 0.0094
19,CCCATGAC,-0.0994 ± 0.037
20,AAGGTATT,0.138 ± 0.056
21,AAAACGTT,-0.173 ± 0.059
22,ACCGGATA,-0.157 ± 0.023
23,CAATAGTC,0.102 ± 0.11
24,GTGGACTA,-0.191 ± 0.017
25,GGCAGGCA,-0.206 ± 0.022

row,Sequence,PBM E-score of 8-mer
1,CCTCAAGC,-0.0512 ± 0.024
2,AAGCGGTG,-0.1161 ± 0.00078
3,CAAATAAA,-0.151 ± 0.0077
4,ACGCGCCT,0.188 ± 0.036
5,GTGCGGGA,0.166 ± 0.0064
6,AAATTGGC,0.0777 ± 0.0011
7,AACGGCTG,-0.102 ± 0.0077
8,CCATACAC,-0.0629 ± 0.0037
9,AGCGCGAG,0.306 ± 0.017
10,AAGCCACG,0.012 ± 0.0057
11,CGAGATAG,-0.0605 ± 0.0028
12,TAATCCGA,-0.195 ± 0.077
13,CTTAAAAG,-0.0743 ± 0.042
14,ATTCGCAG,0.33 ± 0.013
15,ACAAGGAG,-0.0116 ± 0.076
16,AAGTTAGA,-0.186 ± 0.08
17,ACAAGATG,-0.0145 ± 0.022
18,CCCTCCAA,-0.0153 ± 0.012
19,ACTATCTG,0.163 ± 0.0089
20,AAGTGCAT,-0.097 ± 0.032
21,AGGCTCAT,-0.195 ± 0.048
22,ACCAGAAA,0.106 ± 0.073
23,ACAGAAAT,-0.11 ± 0.078
24,TCGAAGAA,-0.222 ± 0.062
25,ACCTGTAA,0.154 ± 0.021

row,Sequence,PBM E-score of 8-mer
1,CCCAGTAA,-0.178 ± 0.0079
2,GCGTTAAC,0.374 ± 0.011
3,CTTTATGC,-0.25 ± 0.0054
4,ACATCGAG,-0.111 ± 0.071
5,TTGTAAAA,-0.0388 ± 0.032
6,ATTGGATC,-0.059 ± 0.022
7,CGGGAGGC,0.0492 ± 0.053
8,TGGTACAA,-0.124 ± 0.034
9,ACTAATCC,-0.0916 ± 0.045
10,TATTATGA,0.101 ± 0.05
11,GCCTGCCC,-0.146 ± 0.058
12,AACCGCGG,0.091 ± 0.053
13,CTGAGTTA,-0.136 ± 0.051
14,AAGCGCCT,-0.0678 ± 0.053
15,GAGGGCCC,-0.115 ± 0.015
16,CACTTTGA,0.285 ± 0.038
17,CGAATTTA,-0.0218 ± 0.072
18,GCAATGTA,-0.0606 ± 0.052
19,ACCCCTGC,-0.0249 ± 0.023
20,TAGGCATA,-0.0515 ± 0.033
21,GCATTGGC,0.024 ± 0.06
22,AGAGCGAT,-0.0402 ± 0.075
